Data published in PubChem BioAssay AID485294 (National Center for Advancing Translational Sciences (NCATS), 2010).
Screen size: about 370,000 compounds; about 150 (0.041%) were called active. This list was built around the results that the source calls inconclusive (neither active nor inactive); the mix of calls is not that of the screen. Calls come from the whole dose curve; as a rule, active = well fitted inhibition curve with a large enough effect; inconclusive = small, poorly fitted or top-dose-only effect; inactive = flat fitted curve, though single readings scatter. Potencies of inconclusive entries are left out as doubtful fits.

Target: Beta-lactamase (Escherichia coli (strain K12)) (UniProt P00811)
UniProt P00811, sequence (P00811 whole entry, looked up): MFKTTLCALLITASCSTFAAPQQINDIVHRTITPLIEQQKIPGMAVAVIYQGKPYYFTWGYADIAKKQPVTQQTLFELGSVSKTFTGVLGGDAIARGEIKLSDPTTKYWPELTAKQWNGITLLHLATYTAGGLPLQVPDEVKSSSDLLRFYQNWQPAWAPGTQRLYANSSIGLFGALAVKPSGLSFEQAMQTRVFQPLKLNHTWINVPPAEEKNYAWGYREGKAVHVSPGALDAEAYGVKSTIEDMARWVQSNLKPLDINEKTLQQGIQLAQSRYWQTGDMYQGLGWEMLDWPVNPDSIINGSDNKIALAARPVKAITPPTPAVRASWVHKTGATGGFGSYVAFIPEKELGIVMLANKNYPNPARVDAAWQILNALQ
Experiment: qHTS Inhibitors of AmpC Beta-Lactamase (assay with detergent); note: nearly all actives have a fitted effect of over 25% in size
Settings: AmpC hydrolysis of nitrocefin, absorbance 480 nm, 0.01% Triton; series mostly up to 114 µM
How it was run: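 20 mM phosphate pH 7.0 + 0.01% (detergent screen) or 0.0001% Triton X-100; 5.3 nM AmpC reagent; cpd preinc 15 min RT; nitrocefin (800 uM stock) to start; A480 q20 s × 4 min; Activity was normalised to no-enzyme and no-compound control wells.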
Potency is the fitted concentration of half-maximal effect; tags give direction and shape of the fitted curve.

SMILES	Potency
CC(C)(O)c1[nH]c2cc(C(F)(F)F)ccc2c1C(C)(C)O	inconclusive [inhibitor, full curve]
CC(=O)Nc1ccc(S(=O)(=O)NNC(=O)COc2cccc(C)c2)cc1	inconclusive [inhibitor, full curve]
O=[N+]([O-])c1ccc(CSc2ccc(S(=O)(=O)N3CCOCC3)cn2)cc1	inconclusive [inhibitor, single point]
Cn1ccc(NC(=O)c2ccc(Cl)cc2)n1	inconclusive [inhibitor, full curve, poor fit]
O=C(CC(=O)c1cc(Cl)ccc1O)c1ccccc1	inconclusive [inhibitor, full curve, poor fit]
COc1cc(CN2C(=O)NC(=O)C3(Cc4cc(C)ccc4N(C)C3)C2=O)cc(OC)c1 (stereo not drawn)	inactive
Cc1cc(C)cc(C(=O)Nc2cccnc2Cl)c1	inconclusive [inhibitor, full curve]
CCOC(=O)/C(C#N)=C\c1ccc(O)c(OC)c1	inactive
CCCNC(=O)COc1coc(CN2CCN(c3cccc(Cl)c3)CC2)cc1=O	inconclusive [inhibitor, partial curve, poor fit]
CCCCC(=O)NC(c1ccccc1Cl)c1c(O)ccc2ccccc12 (stereo not drawn)	inconclusive [inhibitor, partial curve, poor fit]
Cn1c(SCC(=O)N2CCCc3ccccc32)nnc1-c1ccccc1	inactive
COc1cc(NC(=O)c2c(F)c(F)c(F)c(F)c2F)c(OC)cc1Cl	inactive
CSc1ccc(C(=O)C2CCCN(C(=O)CN3CCOC3=O)C2)cc1 (stereo not drawn)	inactive
CCN(CC(=O)Nc1cccc(C#N)c1)CC(=O)Nc1cccc(OC)c1	inconclusive [inhibitor, partial curve, poor fit]
C/C(=N\NC(=O)c1ccc2c(c1)OCO2)c1ccco1	inactive
O=C(NCCc1c[nH]c2ccccc12)C(=O)NCC(c1cccnc1)N1CCN(c2ccccc2)CC1 (stereo not drawn)	inconclusive [inhibitor, full curve, poor fit]
CCOC(=O)Nc1ccc2c(COC(=O)c3ccccc3O)cc(=O)oc2c1	inactive
CC(=O)c1c(C)nn(C(=O)N2CCOCC2)c1C	inconclusive [inhibitor, full curve]
Cc1n[nH]c(=O)c2c(NC(=O)CSc3nnc(C4CC4)n3C)oc(C)c12	inconclusive [inhibitor, single point]
CCOc1ccc2nc(SCc3ccccc3C#N)sc2c1	inconclusive [inhibitor, full curve, poor fit]
O=C(CSc1nnc(Cc2ccccc2)o1)NCc1ccco1	inconclusive [inhibitor, partial curve, poor fit]
Clc1ccc(-c2noc(CN3CCN(c4ccccc4)CC3)n2)cc1	inconclusive [inhibitor, full curve, poor fit]
COc1ccc(C)cc1NC(=O)c1cccc(C(=O)Nc2cc(C)ccc2OC)c1	inconclusive [inhibitor, full curve, poor fit]

SMILES	Potency
CCN(c1ccccc1)S(=O)(=O)c1ccc(OC)c(OC)c1	inconclusive [inhibitor, single point]
Cc1cc(C)c(C(N)=O)c(Nc2ccc3c(c2)OCCO3)n1	inconclusive [inhibitor, partial curve, poor fit]
CCOC(=O)C1=C(Cn2cnc3ccccc32)NC(=O)NC1c1cc(C)ccc1C (stereo not drawn)	inactive
O=C(NCc1ccccc1Br)C1CCCO1 (stereo not drawn)	inconclusive [inhibitor, full curve]
CSc1ncccc1C(=O)NCCc1ccc(S(N)(=O)=O)cc1	inconclusive [inhibitor, partial curve, poor fit]
COc1ccc2nc(-c3ccc(Cl)cc3)cc(C(=O)O)c2c1	inconclusive [inhibitor, full curve, poor fit]
CCCOCCOC(=O)c1[nH]c2c(c1C)C(=O)CC(c1cc(OC)ccc1OC)C2 (stereo not drawn)	inconclusive [inhibitor, full curve, poor fit]
Cc1c(C)c2c(OCC(=O)N3CCC(C(N)=O)CC3)cc3c(c2oc1=O)CCC(C)(C)O3	inconclusive [inhibitor, partial curve]
O=C(CCN1C(=O)C2C3C=CC(C4CC34)C2C1=O)Oc1cccc2cccnc12 (stereo not drawn)	inconclusive [inhibitor, single point]
CN1C(=O)C(=Cc2ccc(OCCN(C)c3ccccn3)cc2)C(=O)N(C)C1=O	inconclusive [inhibitor, full curve, poor fit]
Cc1ccc(NC(=O)Cn2c(=O)n(Cc3ccco3)c(=O)c3sc4ccccc4c32)cc1C	inactive
COc1ccc(C(=O)Nc2cc(Cl)ccc2N2CCOCC2)cc1S(=O)(=O)N1CCOCC1	inconclusive [inhibitor, partial curve, poor fit]
CC(C)N=C1NN=C(c2ccc(F)cc2)CS1	inactive
CC(C)(C)c1ccc(-n2ncc3c2CCCC3NC(=O)CN2CCCC2=O)cc1 (stereo not drawn)	inactive
CCn1c(COc2ccc(OC)cc2)nnc1SCC(=O)Nc1cc(OC)ccc1OC	inconclusive [inhibitor, full curve, poor fit]
CCCCn1c(N)c(N(CCOC)C(=O)c2cc(-c3ccc(OC)c(OC)c3)nc3ccccc23)c(=O)[nH]c1=O	inconclusive [inhibitor, single point]
Cc1cnnn1-c1cccc([N+](=O)[O-])c1	inconclusive [inhibitor, partial curve, poor fit]
COc1ccc(NC2CCCN(C(=O)CCC(=O)c3ccc(F)cc3)C2)cc1 (stereo not drawn)	inconclusive [inhibitor, full curve]
O=C(O)c1ccccc1NS(=O)(=O)c1cccc2cccnc12	inconclusive [inhibitor, full curve, poor fit]
CC(=O)N1CCc2cc(S(=O)(=O)NCCCN3CCCCC3)ccc21	inconclusive [inhibitor, partial curve, poor fit]
COc1ccc(Cn2c(CCC(=O)Nc3ccccc3)nc3cccnc32)cc1	inactive
Clc1cccc(OCCCN2CCCC2)c1Cl	inconclusive [inhibitor, partial curve]
CCOC(=O)N1CCN(S(=O)(=O)c2ccc(C)cc2)C1c1ccccc1 (stereo not drawn)	inconclusive [inhibitor, partial curve, poor fit]

SMILES	Potency
CCCN1CCN(CCCNC(=O)Cn2nc(-c3ccc(C)cc3)ccc2=O)CC1	inconclusive [inhibitor, single point]
NC(=O)NS(=O)(=O)Oc1ccccc1	inconclusive [inhibitor, full curve]
O=C(CSc1nnc(-c2cccnc2)n1Cc1ccco1)c1ccc2ccccc2c1	inconclusive [inhibitor, partial curve, poor fit]
Cc1ccc(C(=O)CSc2nc3ccccc3o2)cc1	inactive
N#CC1=C(N)OC2=C(C(=O)CC(c3ccccc3)C2)C1c1ccoc1 (stereo not drawn)	inconclusive [inhibitor, partial curve, poor fit]
NC(=O)c1ccccc1NS(=O)(=O)Cc1ccccc1	inconclusive [inhibitor, partial curve, poor fit]
COc1ccc(OC)c(C2C3=C(N=C4SCC(=O)N42)c2ccccc2CC3)c1 (stereo not drawn)	inactive
CN(C)CCCNS(=O)(=O)c1ccc(-n2nnc3ccccc32)c([N+](=O)[O-])c1	inconclusive [inhibitor, partial curve, poor fit]
Oc1ccccc1CNc1ccc(OC(F)(F)F)cc1	inactive
O=C(COc1ccccc1)NCC(=O)N/N=C/c1ccc(Cl)cc1	inactive
CC1CCN(C(=O)CSc2nnc(-c3cccs3)o2)CC1	inactive
O=C(Nc1cccc(OCc2cc(=O)n3c4c(sc3n2)CCCC4)c1)c1ccc(F)cc1	inactive
CC1CCN(C(=O)c2[nH]cnc2C(=O)NC2CCN(C(=O)OC(C)(C)C)CC2)CC1	inactive
Cc1cccc(N2CCN(S(=O)(=O)c3cccc4nonc34)CC2)c1C	inconclusive [inhibitor, partial curve]
CCC(CC)C(=O)Nc1cccc(-c2ccc3nncn3n2)c1	inconclusive [inhibitor, full curve, poor fit]
O=C1CC(=O)N(c2cccc(Cl)c2)C(=O)N1	inconclusive [inhibitor, full curve]
CCOc1ccc(OCCCCNC(C)(C)C)cc1	inconclusive [inhibitor, single point]
O=c1[nH]n(-c2ccccc2)c(=O)c(Cl)c1Cl	inconclusive [inhibitor, partial curve]
CCCCNC(=O)c1nn2c(C(F)(F)F)cc(-c3ccc(OC)cc3)nc2c1Br	inconclusive [inhibitor, partial curve, poor fit]
O=C(NCCc1ccc(F)cc1)Nc1ccccc1Cl	inactive
CN(Cc1ccccc1Cl)C(=O)c1cc2ccccc2o1	inconclusive [inhibitor, single point]
CCOC(=O)N1CCN(C(=O)CS(=O)(=O)c2cn(Cc3ccccc3Cl)c3ccccc23)CC1	inconclusive [inhibitor, full curve, poor fit]
